# Measured values published in PubChem BioAssay AID1956 (SRMLSC, 2009).
# Among all 220,000 compounds or so, about 10 (0.005%) were called active. Inconclusive results, whose numbers are uncertain, are shown with a selection of clear calls. Rule as the data show it: active = maximum fold increase above about 1.5; inconclusive = no clear call, values can overlap the other calls; inactive = below that; tested in PC3 cells.
# Assay: compounds boosting herpes simplex virus growth – fold increase, host cell viability (AID 1956)
# Conditions: HSV replication augmentation in cells; at 25 µM, active compounds read high unless noted
row,SMILES,maximum fold increase
1,CN(C)/C=C1\C=C2C(=O)c3ccccc3N2C1=O,inconclusive
2,Cc1ccc(N/C(C(Cl)=C(Cl)Cl)=C(/Cl)[N+](=O)[O-])c(C)c1,inactive
3,CCCN1CC=C2C(C#N)=C(N)C(C#N)(C#N)C(c3cc(OC)ccc3OC)C2C1 (centres undefined),inconclusive
4,CCOc1cc(/C=N\Nc2ccc([N+](=O)[O-])cc2)ccc1OCC(=O)Nc1ccc(C)c(C)c1,inconclusive
5,CNc1nc(-c2ccc3c(c2)CCN3C(=O)c2ccccc2F)cs1,inactive
6,CC(C)(C)C1CCC(=NNC(=O)C(=O)NCc2ccco2)CC1 (centres undefined),inactive
7,C=CCn1c(=O)/c(=C2/Sc3ccccc3N2CC)s/c1=C1/C(=O)NN=C1C,inconclusive
8,COc1ccccc1N1C(=O)CC(Nc2ccc(N3CCOCC3)cc2)C1=O (centres undefined),inconclusive
9,O=C(CN1C(=O)C2CCCCC2C1=O)N1CCN(c2ncccn2)CC1 (centres undefined),inconclusive
10,Cc1ccc(-c2c[n+]3c(n2-c2ccccc2)CCC3)cc1,inconclusive
11,COc1cccc(N(C(=O)c2ccco2)C(C(=O)NC2CCCC2)c2cccnc2)c1 (centres undefined),inactive
12,CN1/C(=c2/s/c(=C3/C(=O)N(c4ccccc4)NC3=Nc3ccccc3)n(C)c2=O)C(C)(C)c2ccccc21,inconclusive
13,COc1cccc(/C=N/NC(=S)Nc2cccc(C(=O)O)c2)c1O,inconclusive
14,Cc1oc(C)c2c(=O)ccc3c(c12)OC(N)=C(C#N)C3c1ccccc1Cl (centres undefined),inconclusive
15,CCCCc1cc(=O)oc2cc(OCc3cc(OC)c(OC)c(OC)c3)c(Cl)cc12,inconclusive
16,CCc1ccc(NC(=O)C2C3/C=C\CCCCC32)cc1 (centres undefined),inactive
17,COc1ccc(-c2cc(-c3cccs3)c(C#N)c(SCC(=O)NCc3ccccc3)n2)cc1,inconclusive
18,C=CCn1c(N)c(-c2nc3ccccc3n2C)sc1=S,inconclusive
19,Cc1c(Cl)cccc1NC(=O)Cn1cc(C(F)(F)F)cc(Cl)c1=O,inactive
20,COC(=O)CN1C(=O)S/C(=C/c2ccc(N3CCCCC3)o2)C1=O,inconclusive
21,Cc1n[nH]c(C)c1N1C(=O)c2cccc3c(N4CCCCCC4)ccc(c23)C1=O,inconclusive
22,Nc1cnccc1C(=O)O,inconclusive
23,Cc1nn2c(-c3cccc(NC(=O)CSc4nc5ccccc5o4)c3)nnc2c2ccccc12,inconclusive
24,Cc1cc(NC(=O)/C(C#N)=C/c2ccco2)n(-c2ccccc2)n1,inconclusive
25,O=C(NC1CCCC1)c1ccc(COCC(F)(F)C(F)F)o1,inactive

row,SMILES,maximum fold increase
1,O=C(CSCc1ccccc1)NCc1ccc2c(c1)OCO2,inactive
2,O=[N+]([O-])c1ccc(N2CCN(S(=O)(=O)c3ccc(Cl)cc3)CC2)cc1NCc1cccnc1,inconclusive
3,CS(=O)(=O)Nc1ccccc1C(=O)O,inactive
4,Cc1cc(C(=O)CN2CCCC(C)C2)c(C)n1-c1ccc(F)cc1 (centres undefined),inactive
5,N#CC1=C(N)C(C#N)(C#N)[C@H](c2ccsc2)[C@H]2COCC=C12,inconclusive
6,CCc1sc(C(C2C(=O)CC(C)(C)CC2=O)C2C(=O)CC(C)(C)CC2=O)cc1[N+](=O)[O-],inactive
7,COc1cc(/C=N/N2C(=O)CSC2=S)cc(Br)c1O,inconclusive
8,CCN(CC)c1ccc2c(Cl)cc(=O)oc2c1,inconclusive
9,COc1ccc(NS(=O)(=O)c2ccc(C)c(NC(=O)NC3CCCCC3)c2)cc1,inactive
10,O=C(CSc1n[nH]c(=O)n1-c1cccnc1)N1CCOCC1,inactive
11,CCO/C=C1\SC(=S)N(c2ccc(Cl)cc2)C1=O,inconclusive
12,COc1cc(/C=C2/SC(=S)N(CC3CCCO3)C2=O)ccc1O (centres undefined),inconclusive
13,CC(=O)c1sc(N/N=C\c2ccc(Br)cc2)nc1C,inconclusive
14,Cc1ccc(C(=O)N/N=C\c2cc(Br)c(Br)o2)cn1,inconclusive
15,Cc1ccc(O)c(C(=O)c2cc(C#N)c(=O)n(-c3nccs3)c2)c1,inconclusive
16,CCn1c(SCC(=O)NC(=O)Nc2ccc3c(c2)OCCO3)nnc1-c1cccs1,inactive
17,CCOc1cc2[nH]c(=S)n(CCN3CCCCC3CC)c(=O)c2cc1OCC (centres undefined),inactive
18,CC(C)CC(C(=O)Nc1oc(-c2ccccc2)c(-c2ccccc2)c1C#N)N1C(=O)c2ccccc2C1=O (centres undefined),inconclusive
19,O=c1c2ccccc2sc2ccc(NCCCN3CCOCC3)cc12,inconclusive
20,Cc1ccc(CCC(=O)Nc2ncc(Cc3cccc(Cl)c3Cl)s2)o1,inconclusive
21,CCc1ccc(C(=O)/C=C/NCc2ccc(F)cc2)cc1,"active: 1.5 [at 0.098 µM, active compounds read high]"
22,Cc1cc(C)nc(NC2=NCC(=O)N2CCc2c[nH]c3ccccc23)n1,inconclusive
23,CCOc1cc(/C=C2/SC(=S)NC2=O)ccc1OC(=O)c1ccco1,active: 4.61
24,Cc1ccc(SCC(=O)Nc2cccc(-c3nnc(-c4ccco4)o3)c2)cc1,inactive
25,Cc1ccn2c(Nc3ccc4c(c3)OCO4)c(-c3ccccn3)nc2c1,inconclusive

row,SMILES,maximum fold increase
1,CCOC(=O)c1c(NC(=O)CSc2nnc(-c3c[nH]c4ccccc34)n2C)sc2c1CCCC2,inactive
2,COc1ccccc1/C=C\C=N\n1c(-c2ccc(Cl)cc2)n[nH]c1=S,inactive
3,CCCCN1CC[C@H]2C=CC[C@@H](C(=O)NCCc3ccccc3)[C@H]2C1=O,inactive
4,N#Cc1c2c(c(=S)n(-c3ccccc3)c1N)CCCC2,inconclusive
5,CCOc1ccc(NC(=O)c2cccc3c2C(=O)N(CCOC)C3)cc1,inactive
6,O=C1/C(=C/c2c[nH]c3ccccc23)CCC/C1=C\c1c[nH]c2ccccc12,inconclusive
7,Cc1oc(C)c2c(=O)ccc3c(c12)OC(N)=C(C#N)C3c1ccc(F)cc1 (centres undefined),inconclusive
8,CCOC(=O)c1c(C)nc2sc(C(=O)Nc3ccc(C(C)=O)cc3)c(N)c2c1-c1ccc(OC)cc1,inconclusive
9,COc1cc(/C=C(/C#N)c2nc3ccccc3[nH]2)ccc1OC(=O)c1ccco1,inconclusive
10,CCOc1cccc(=O)c2c(C)n(-c3ccc(C(=O)O)cc3)c(C)c12,inconclusive
11,CCOc1cccc(=O)c2c(C)oc(C)c12,inconclusive
12,CCOC(=O)C1=C(C)NC(=O)NC1c1ccc(N2CCC(c3ccccc3)=N2)cc1 (centres undefined),inconclusive
13,CC1CCCN(c2nc3ccsc3c(=O)s2)C1 (centres undefined),inactive
14,C=CCN1C(=O)/C(=C/c2ccc(O)c(OC)c2)S/C1=N/c1nccs1,inconclusive
15,O=C(Oc1c(-c2ccco2)oc2ccccc2c1=O)c1cccnc1,inconclusive
16,Nc1c(C(=O)c2cccs2)sc2nsc(SCCN3CCCCC3)c12,inconclusive
17,Nc1cc2c3c(cccc3c1)C(=O)N(CCN1CCCC1)C2=O,inconclusive
18,Cc1nnc(SCCN2C(=O)c3ccccc3C2=O)nc1C,inconclusive
19,O=S1(=O)NC(=NCCc2ccccn2)c2ccccc21,inactive
20,C(=N\Nc1nc(-c2ccccc2)cs1)/c1cccs1,inactive
21,COc1cc(/C=C/C(=O)c2c(O)cc(C)oc2=O)cc(OC)c1O,inconclusive
22,COc1ccc(CN2C(=O)/C(=C/c3ccc(-c4ccc(Cl)c(C(=O)O)c4)o3)SC2=S)cc1,inconclusive
23,CCc1ccc(CNc2ccc(N3CCN(C(C)=O)CC3)cc2)cc1,inconclusive
24,CC(=O)C1=NN(c2ccccc2)C(c2cccs2)N1c1ccccc1 (centres undefined),"active: 1.53 [at 6.25 µM, active compounds read high]"
25,Cc1cccc(OCC(=O)Nc2nnc(-c3ccco3)s2)c1,inactive

row,SMILES,maximum fold increase
1,OC1CCN(Cc2cccc(Oc3ccccc3)c2)CC1,inactive
2,Cc1ccc(NC(=O)N(Cc2ccc3c(c2)OCO3)Cc2cc3cc4c(cc3[nH]c2=O)OCCO4)cc1,inconclusive
3,CCn1c(C)cc(/C=C2/SC(=S)N(CC(=O)O)C2=O)c1C,inconclusive
4,COc1ccc(C(=O)c2sc3nc(C)cc(-c4cccs4)c3c2N)cc1,inconclusive
5,Cc1cc(NS(=O)(=O)c2ccc(NC(=O)CSc3nnc(-c4ccco4)n3C)cc2)nc(C)n1,inactive
6,CC(=O)N(/N=C1\Sc2ccccc2C1=O)c1ccccc1C,inactive
7,CN(C)CCN1C(=O)C(O)=C(C(=O)c2cc3ccccc3o2)C1c1cccc(Br)c1 (centres undefined),inactive
8,CC(=O)Nc1ccc(S(=O)(=O)Nc2nc3ccccc3nc2Nc2ccc(N)cc2)cc1,inconclusive
9,CCCCNC(=O)COC(=O)CCC(=O)c1ccc(F)cc1,inactive
10,COc1ccc2[nH]c(C(=O)N3CCCN(Cc4ccc(F)cc4)CC3)cc2c1,inactive
11,O=C(NCCCN1CCOCC1)c1ccccc1NS(=O)(=O)c1cc([N+](=O)[O-])ccc1Cl,inconclusive
12,Cc1c(Cc2ccccc2)sc(/N=C/c2c(O)ccc3ccccc23)c1C(N)=O,inconclusive
13,CCOC(=O)N1CCC(Nc2c(Nc3ccc(F)cc3)c(=O)c2=O)CC1,inconclusive
14,CCOC(=O)/C(=C/C1=CC(=C/N(C)C)/C(=O)O1)C(C)=O,inconclusive
15,CC(C)(C)c1cc(/C=N/O)cc(C(C)(C)C)c1O,inactive
16,COc1cc(NC(=S)NC(=O)c2ccc(C)cc2C)ccc1NC(=O)c1cccs1,inconclusive
17,CCC1=Nc2ccccc2NC2=C1C(=O)CCC2,inconclusive
18,COc1ccc(/C=C2\CCCc3c2nc2ccccc2c3C(=O)O)cc1OC,inconclusive
19,COc1cc(C(=O)OC2CC3CCC2(C)C3(C)C)ccc1OC(C)=O (centres undefined),inactive
20,N#C/C(=C\c1ccc(OC(=O)c2ccc(Br)s2)cc1)c1nc2ccccc2[nH]1,inconclusive
21,Cc1ccc(C(=O)COc2cc(C)nc3nncn23)cc1,inactive
22,COc1ccc(S(=O)(=O)N/N=C\c2ccc(OC)c(COc3ccc(C)cc3[N+](=O)[O-])c2)cc1,inconclusive
23,N#CC1=C(N)Oc2ccc3ccc(O)cc3c2C1c1ccsc1 (centres undefined),inconclusive
24,O=C1/C(=C\c2ccc(O)cc2)SC(=S)N1c1cccnc1,inconclusive
